Test results reported in a collection of fitness landscapes (doi:10.1016/j.celrep.2020.107928).
The full ranking holds about 81,000 sequences; the median of “one-hybrid fitness for binding NBS DNA” is about -0.1, and the highest 2% start at about 0.36. Some of the results follow.

B1: Caulobacter ParB omega fusion; a variant is named by its letters at X, in order, B8GW30 (parent)
chain: MESVVVGEPGMSEGRRGLGRGLSALLGEVDAAPAQAPGEQLGGSREAPIEILQRNPDQPRRTFREEDLEDLSNSIREKGVLQPILVRPSPDTAGEYQIVAGERAWRAAQRAGLKTVPIMVRELDDLAVLEIGIIENVQRADLNVLEEALSYKVLMEKFERTQENIAQTIGKSXSHVANXMRLLXLPDEVQSYLVSGELTAXHARAIAAAADPVALAKQIIEGGLSVRETEALARKAPNLSAGKSKGGRPPRVKDTDTQALESDLSSVLGLDVSIDHRGSTGTLTITYATLEQLDDLCNRLTRGI

Variants of: B1
Assay: one-hybrid fitness for binding NBS DNA (the Noc-binding site; scaled: cognate 1, non-cognate 0); higher = stronger binding
Conditions: with NBS DNA site
Procedure, shortened: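 On M9-minus-histidine containing 0.1 mM IPTG and 5 mM 3-AT, E. coli USO cells with a HIS3 reporter, site 19 bp from the promoter, grew 48 hours at 37°C to select Caulobacter ParB libraries randomised at four specificity codons. Plasmids from before and after were Illumina-sequenced, with three replicate libraries pooled and variants under 10 reads left out. Fitness is the log change in variant-to-wild-type read ratio, rescaled against cognate and non-cognate.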

Variant | one-hybrid fitness for binding NBS DNA
TPWV | ≤ 0.2
QSLS | 0.263
RNKS | 0.489
LILI | ≤ 0.2
TKFL | ≤ 0.2
SFYT | ≤ 0.2
KKSV | ≤ 0.2
DQTP | ≤ 0.2
CVKL | ≤ 0.2
ASSH | ≤ 0.2
NQKG | ≤ 0.2
LIYY | ≤ 0.2
QKNY | 0.26
DYEI | ≤ 0.2
KADV | ≤ 0.2
PAGN | ≤ 0.2
PFHI | ≤ 0.2
QAKE | 0.256
ILDS | ≤ 0.2
RQLD | ≤ 0.2
NTCW | ≤ 0.2
SLYY | ≤ 0.2
GSGE | ≤ 0.2
QGRF | ≤ 0.2
LIKI | ≤ 0.2

Variant | one-hybrid fitness for binding NBS DNA
GYFG | ≤ 0.2
DPGV | ≤ 0.2
RIQC | ≤ 0.2
MLWM | ≤ 0.2
WMLG | ≤ 0.2
DQYS | ≤ 0.2
GSTW | ≤ 0.2
RSEE | ≤ 0.2
FCTG | ≤ 0.2
QDLW | ≤ 0.2
TDSV | ≤ 0.2
HNLN | ≤ 0.2
QTVW | ≤ 0.2
RWHK | ≤ 0.2
IDCI | ≤ 0.2
GRWG | ≤ 0.2
WKPG | ≤ 0.2
RKTY | 0.217
LCCF | ≤ 0.2
LRRD | ≤ 0.2
RSIG | ≤ 0.2
SCRT | ≤ 0.2
LRRR | 0.483
CDVV | ≤ 0.2
PDAV | ≤ 0.2

Variant | one-hybrid fitness for binding NBS DNA
CRAW | ≤ 0.2
VTAN | ≤ 0.2
ALAY | ≤ 0.2
FSPY | ≤ 0.2
VARR | ≤ 0.2
PEEM | ≤ 0.2
ATEM | ≤ 0.2
AIWV | ≤ 0.2
NGEY | ≤ 0.2
RNIY | ≤ 0.2
SPAC | ≤ 0.2
YCLC | ≤ 0.2
MVNF | ≤ 0.2
YGKV | ≤ 0.2
RLNL | ≤ 0.2
CTHE | ≤ 0.2
ALKS | ≤ 0.2
FAPI | ≤ 0.2
EGRL | ≤ 0.2
MQIV | ≤ 0.2
PDSW | ≤ 0.2
GGIC | ≤ 0.2
PHAT | ≤ 0.2
FSHM | ≤ 0.2
YAPI | ≤ 0.2

Variant | one-hybrid fitness for binding NBS DNA
QCKF | 0.387
LHTR | ≤ 0.2
RMIV | ≤ 0.2
AKYL | ≤ 0.2
AHRN | ≤ 0.2
IVNQ | ≤ 0.2
CNVE | ≤ 0.2
LVGV | ≤ 0.2
DADN | ≤ 0.2
GLTS | ≤ 0.2
QPDC | ≤ 0.2
KRLC | ≤ 0.2
KPVR | ≤ 0.2
SSTS | ≤ 0.2
PITY | ≤ 0.2
HKGL | ≤ 0.2
SSDF | ≤ 0.2
YARQ | ≤ 0.2
QHKC | 0.367
SCSE | ≤ 0.2
AIVI | ≤ 0.2
TRIR | ≤ 0.2
LYNR | ≤ 0.2
TTMT | ≤ 0.2
DESV | ≤ 0.2

Variant | one-hybrid fitness for binding NBS DNA
FTKR | 0.263
RYLW | ≤ 0.2
NTPY | ≤ 0.2
PVVT | ≤ 0.2
QSAE | ≤ 0.2
FIGR | ≤ 0.2
WSAT | ≤ 0.2
PFYD | ≤ 0.2
PDSY | ≤ 0.2
GKVW | ≤ 0.2
KPPL | ≤ 0.2
CQAW | ≤ 0.2
NAGP | ≤ 0.2
HCME | ≤ 0.2
SAWL | ≤ 0.2
LFEY | ≤ 0.2
RTDV | ≤ 0.2
TSDI | ≤ 0.2
SIHL | ≤ 0.2
QTAA | 0.44
TNLP | ≤ 0.2
VSGS | ≤ 0.2
VGPR | ≤ 0.2
RKHV | ≤ 0.2
YCQT | ≤ 0.2

Variant | one-hybrid fitness for binding NBS DNA
TRMD | ≤ 0.2
QAYV | ≤ 0.2
GLFR | ≤ 0.2
LYVQ | ≤ 0.2
IDYS | ≤ 0.2
PRIF | ≤ 0.2
RIKQ | ≤ 0.2
YNLW | ≤ 0.2
WGHV | ≤ 0.2
AISH | ≤ 0.2
LMSQ | ≤ 0.2
VEGS | ≤ 0.2
MQNA | ≤ 0.2
KLEF | ≤ 0.2
EGVT | ≤ 0.2
HTVN | ≤ 0.2
TSCM | ≤ 0.2
PCLA | ≤ 0.2
QPHI | ≤ 0.2
AEYE | ≤ 0.2
FCSN | ≤ 0.2
RKKE | ≤ 0.2
ARER | ≤ 0.2
ILPL | ≤ 0.2
FWRR | 0.342

Variant | one-hybrid fitness for binding NBS DNA
TSCK | ≤ 0.2
MSED | ≤ 0.2
QRQC | 0.362
CVHI | ≤ 0.2
GTRT | ≤ 0.2
VHGI | ≤ 0.2
DSSG | ≤ 0.2
MSTL | ≤ 0.2
HHKP | ≤ 0.2
YYKT | ≤ 0.2
FPRS | ≤ 0.2
NDKL | ≤ 0.2
WADS | ≤ 0.2
LINR | ≤ 0.2
HILV | ≤ 0.2
VGLM | ≤ 0.2
QYKR | 0.99
RMGL | ≤ 0.2
TWKK | ≤ 0.2
RRGK | 0.215
TFVH | ≤ 0.2
PTHV | ≤ 0.2
DGMG | ≤ 0.2
IRSP | ≤ 0.2
PCTM | ≤ 0.2

Variant | one-hybrid fitness for binding NBS DNA
TGEM | ≤ 0.2
TRNH | ≤ 0.2
NLKG | ≤ 0.2
PYCG | ≤ 0.2
VSSA | ≤ 0.2
RKKV | 0.277
SKIC | ≤ 0.2
YAHC | ≤ 0.2
EWVR | ≤ 0.2
QMSI | ≤ 0.2
SPNQ | ≤ 0.2
PWFF | ≤ 0.2
SVHK | ≤ 0.2
RILF | ≤ 0.2
GLDM | ≤ 0.2
HKLL | ≤ 0.2
YACS | ≤ 0.2
EWPG | ≤ 0.2
CAAQ | ≤ 0.2
TSFG | ≤ 0.2
